Results on 172 sequences are retold here after article PMC5836133.

Some of the results follow. At the low end of the ranking the order means little.

For this experiment, the system named is T1, GST-NbGlk1(82-244).
T1 sequence: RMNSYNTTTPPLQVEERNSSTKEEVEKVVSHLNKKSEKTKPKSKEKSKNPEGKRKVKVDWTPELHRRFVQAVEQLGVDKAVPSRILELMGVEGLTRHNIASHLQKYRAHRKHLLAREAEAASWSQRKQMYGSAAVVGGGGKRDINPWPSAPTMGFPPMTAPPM
Kind of experiment: protein-binding microarray.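 Also: rank-based score ranging −0.5 to +0.5 with E above 0.45 taken as significant binding.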 The settings on record: NbGlk1 is a Golden2-like transcription factor of Nicotiana benthamiana; high values mean tight binding; most listed sequences are background and not binding sites; double strand, one strand shown.
On to ATCTTTTC, for which the binding signal stood at 0.289 E-score. In the case of CAGAGGTA, the binding signal is -0.0926 E-score.

ATGCCAAG registered a binding signal of -0.0549 E-score.

The sequence AGGGGACC had a binding signal of -0.247 E-score.

Regarding CAACGCTA, the binding signal was -0.148 E-score. AGCAGACT registered a binding signal of -0.175 E-score. As for ACAATTCC, the binding signal worked out at 0.0828 E-score. AATTTTTC registered a binding signal of 0.163 E-score.

In turn, AATGGTAG yielded a binding signal of 0.0132 E-score. For ACACGTGA the value was -0.0423 E-score.

In turn, AATGATCG had a binding signal of 0.072 E-score. On to AACCCCCC, for which the binding signal was -0.345 E-score. In turn, CAAACGGG displayed a binding signal of -0.0201 E-score. In the case of AATATATC, the binding signal was found to be 0.311 E-score. For AGGACGAG the value was -0.284 E-score; for ACACGTCG, -0.104 E-score. Regarding AGATGTAA, the binding signal was determined as 0.0451 E-score. In the case of ATGGCGGG, the binding signal is -0.221 E-score. AGGGTGAC came in with a binding signal of -0.0929 E-score.

ACGTGGAA yielded a binding signal of -0.0175 E-score. AAATGAGG gave a binding signal of -0.0177 E-score. ACGTTGGA returned a binding signal of -0.0911 E-score. For ACGCTCCA, the binding signal is -0.177 E-score. Consider ACCTTTGC, for which the binding signal was -0.111 E-score. Consider AGAATGTA, for which the binding signal is 0.108 E-score. The sequence AGTCCGCG had a binding signal of -0.183 E-score. As for AAACGGGT, the binding signal is -0.195 E-score. CAAACGCA yielded a binding signal of -0.0422 E-score. As for AGTGATAA, the figure is -0.0892 E-score; as for ACAGATAA, 0.189 E-score; as for CAAGACGC, -0.144 E-score. As for AATGGCGG, the figure is -0.131 E-score; as for ATAGTTGA, 0.0546 E-score; as for AGTTGGAA, 0.0544 E-score. ATGGACCC yielded a binding signal of -0.252 E-score. The sequence AAGAGTCA returned a binding signal of -0.0731 E-score. As for ATAGGCAA, the binding signal is -0.0435 E-score. As for ATACACGA, the figure is 0.185 E-score; as for AGCTGGGG, -0.188 E-score; as for ATGGTCTG, -0.179 E-score.

AAACCATT yielded a binding signal of -0.0754 E-score. In turn, CACGTCAC displayed a binding signal of 0.0661 E-score. As to AGGGTTTC, the binding signal was -0.238 E-score. For ACAAGGAT the value was 0.227 E-score. Consider ATCCGCTA, for which the binding signal was 0.353 E-score. As for ATAAACTA, the figure is -0.00382 E-score; as for ATATCTCC, 0.388 E-score; as for ACTTCCTA, -0.0434 E-score. AGTTTATG gave a binding signal of -0.0296 E-score. AAGGAGCG came in with a binding signal of -0.0899 E-score. As for AAACGGTA, the binding signal turned out to be 0.0389 E-score. For ATGGCGTG, the binding signal is -0.047 E-score. As for AGACGACA, the figure is -0.154 E-score; as for AGATTTCA, 0.467 E-score. For ACAACTAT, the binding signal worked out at 0.0731 E-score.

On to AGTTTCAG, for which the binding signal came to 0.0119 E-score.

For the sequence ATGTGAGG, the binding signal was -0.0259 E-score. For ACAATTAT the value was 0.106 E-score; for AAGGGGGC, -0.198 E-score; for ACAGTATG, -0.0588 E-score. For AGTCTCGG the value was -0.235 E-score. As for ATCAGTTC, the figure is 0.172 E-score; as for AGTTTTTA, 0.127 E-score. Take AGCTGGTA: the binding signal was -0.142 E-score. In turn, ACTGGACG showed a binding signal of -0.063 E-score. Take AATGACAA: the binding signal is 0.101 E-score.

The sequence CACTTCCG yielded a binding signal of -0.0487 E-score. With AACTGGCT, the binding signal was -0.252 E-score.

On to AGAGTCTC, for which the binding signal was -0.0574 E-score. AGTCTGTG displayed a binding signal of -0.0944 E-score. Consider AGGTTGGG, for which the binding signal was -0.175 E-score. In turn, AGATATAT registered a binding signal of 0.316 E-score. In turn, AACACGTG came in with a binding signal of -0.0376 E-score. As for AGTGTTGA, the figure is 0.0172 E-score; as for AACGACCT, -0.247 E-score. As for AATGGAGC, the figure is -0.11 E-score; as for ACCTACAA, -0.0976 E-score. The sequence AGGGAGAG showed a binding signal of -0.217 E-score. Consider AACGACCG, for which the binding signal was -0.134 E-score. The sequence ATATGCGA came in with a binding signal of 0.229 E-score.

On to CACGCAGG, for which the binding signal was -0.215 E-score. As for AATTTATA, the figure is 0.264 E-score; as for AAGACCCG, -0.353 E-score. AACCTTGC: the binding signal is -0.154 E-score. Regarding ATGTATGC, the binding signal is 0.107 E-score.

In the case of AGCTCACT, the binding signal is -0.201 E-score.

Sequence AAGGCTCG returned a binding signal of -0.248 E-score. ACTGGCTC yielded a binding signal of -0.288 E-score.

In turn, AGTCTTGC had a binding signal of -0.0302 E-score. As for AGTTTATA, the figure is 0.158 E-score; as for ATCTTCGG, 0.284 E-score; as for ATGACATA, -0.0949 E-score. Take AGAAACCC: the binding signal was -0.18 E-score. For ATAACGAT the value was 0.216 E-score; for ACGCAAAA, 0.172 E-score. ATTAGTCC: the binding signal was -0.131 E-score.

Take AAGCGAGC: the binding signal was -0.108 E-score.

CAACGCCG returned a binding signal of -0.25 E-score.

Turning to AACTGTAC, the binding signal was -0.167 E-score.

For AGGAGTCG, the binding signal was -0.166 E-score.

As for ACAATCAA, the binding signal is 0.223 E-score. As for ATAACTTC, the figure is 0.0418 E-score; as for AACGGCTT, -0.157 E-score; as for CAAGCCCC, -0.19 E-score.

ACTTCACC returned a binding signal of -0.0899 E-score. For AATATAGC, the binding signal turned out to be 0.193 E-score. For AGTCCATG the value was -0.194 E-score. As for AGGTGCGC, the figure is -0.279 E-score; as for AGCCCTCG, -0.306 E-score; as for AAAAGGTC, -0.119 E-score. Regarding ACTTTGCA, the binding signal is -0.0392 E-score. In turn, ATCCAATC gave a binding signal of 0.254 E-score. On to ACAGGCGG, for which the binding signal is -0.142 E-score. In turn, AGCGAACT came in with a binding signal of -0.285 E-score.

ATCGACTC: the binding signal is 0.072 E-score.

On to AACTCGAG, for which the binding signal was -0.125 E-score. As to AGGACGCC, the binding signal is -0.274 E-score. As to AACCCGTC, the binding signal is -0.191 E-score. As for AGGCGTGC, the figure is -0.222 E-score; as for AATGCTCC, -0.241 E-score. Regarding ACCTATCG, the binding signal was -0.0273 E-score. AGGGGAAC registered a binding signal of -0.142 E-score. The sequence ACTGTCCC displayed a binding signal of -0.0963 E-score. As to AACAACCT, the binding signal was -0.189 E-score. With AATTGATA, the binding signal is 0.13 E-score. As for CACCCATG, the figure is -0.193 E-score. With CAAGGCAC, the binding signal was -0.245 E-score. The sequence ACCTGCAA yielded a binding signal of -0.0581 E-score. On to AACCTTAC, for which the binding signal is -0.196 E-score. For ACCCGGGC the value was -0.195 E-score; for ACAACAAA, 0.0662 E-score. ACTCGTTC returned a binding signal of -0.102 E-score.

Regarding AATTGTGT, the binding signal was determined as 0.123 E-score. ACTTGTCG showed a binding signal of -0.195 E-score. Regarding AGATTACC, the binding signal is 0.459 E-score.

For ATTCATCG, the binding signal stood at 0.0633 E-score.

For the sequence ACCAAGCC, the binding signal is -0.183 E-score.

AGTGGTCG returned a binding signal of -0.215 E-score.

CAACACAC displayed a binding signal of -0.139 E-score.

Sequence AAGGTAGA displayed a binding signal of 0.0394 E-score. In the case of ATTCCAGG, the binding signal was 0.13 E-score. For AGCTAACA the value was -0.0913 E-score; for ATCGGAGC, 0.0219 E-score. As for ATTTACGA, the figure is 0.191 E-score; as for ACGTGGCC, -0.258 E-score; as for CACCTTAA, -0.126 E-score.

Regarding AGATGGCT, the binding signal is -0.13 E-score. Turning to CACATATA, the binding signal was determined as 0.0872 E-score. AACTTCAT registered a binding signal of -0.0823 E-score.

Take ACATGAGT: the binding signal came out at 0.0378 E-score. As for ACTCCAAC, the figure is -0.176 E-score. Sequence ACTGAGGA came in with a binding signal of 0.00353 E-score. For ACTTGCTA the value was -0.107 E-score; for ATCTGCTC, 0.147 E-score; for ACTTGTCC, -0.173 E-score. As for AAAGTACT, the binding signal was -0.0835 E-score. In turn, AGTTGCGA registered a binding signal of 0.00658 E-score. In the case of AACAGGTG, the binding signal is -0.202 E-score. Sequence ACCGCGGA displayed a binding signal of -0.0687 E-score. On to AGCTGGTC, for which the binding signal is -0.341 E-score. Sequence ATCCTAGA returned a binding signal of 0.263 E-score. ACTATCTG gave a binding signal of 0.13 E-score. As for CACGTCCG, the figure is -0.157 E-score; as for AGTGCGTC, -0.207 E-score. Sequence AAGCTGGT registered a binding signal of -0.248 E-score. Sequence ATGATGTC returned a binding signal of -0.0895 E-score. For the sequence AGTTCCCC, the binding signal was -0.181 E-score.

CACTTGTC gave a binding signal of -0.175 E-score.

Take ATGGGCTC: the binding signal is -0.138 E-score. In turn, AAGAAATC came in with a binding signal of 0.443 E-score. On to AATTTTTA, for which the binding signal worked out at 0.181 E-score. In the case of ACTGATAG, the binding signal is -0.0397 E-score.
